Test results taken from PMC4336329 (PLoS ONE, 2015).
In all, about 310,000 compounds went through this assay and about 2,200 (0.71%) showed an effect of 50% or more. The effect is printed as a negative number. This is one part of the list.

Target: human ether-à-go-go-related gene (hERG) potassium channel (human, UniProt Q12809)
Test: primary screen, population patch clamp on CHO cells stably expressing hERG

Sequence of human ether-à-go-go-related gene (hERG) potassium channel (Q12809 whole entry, looked up): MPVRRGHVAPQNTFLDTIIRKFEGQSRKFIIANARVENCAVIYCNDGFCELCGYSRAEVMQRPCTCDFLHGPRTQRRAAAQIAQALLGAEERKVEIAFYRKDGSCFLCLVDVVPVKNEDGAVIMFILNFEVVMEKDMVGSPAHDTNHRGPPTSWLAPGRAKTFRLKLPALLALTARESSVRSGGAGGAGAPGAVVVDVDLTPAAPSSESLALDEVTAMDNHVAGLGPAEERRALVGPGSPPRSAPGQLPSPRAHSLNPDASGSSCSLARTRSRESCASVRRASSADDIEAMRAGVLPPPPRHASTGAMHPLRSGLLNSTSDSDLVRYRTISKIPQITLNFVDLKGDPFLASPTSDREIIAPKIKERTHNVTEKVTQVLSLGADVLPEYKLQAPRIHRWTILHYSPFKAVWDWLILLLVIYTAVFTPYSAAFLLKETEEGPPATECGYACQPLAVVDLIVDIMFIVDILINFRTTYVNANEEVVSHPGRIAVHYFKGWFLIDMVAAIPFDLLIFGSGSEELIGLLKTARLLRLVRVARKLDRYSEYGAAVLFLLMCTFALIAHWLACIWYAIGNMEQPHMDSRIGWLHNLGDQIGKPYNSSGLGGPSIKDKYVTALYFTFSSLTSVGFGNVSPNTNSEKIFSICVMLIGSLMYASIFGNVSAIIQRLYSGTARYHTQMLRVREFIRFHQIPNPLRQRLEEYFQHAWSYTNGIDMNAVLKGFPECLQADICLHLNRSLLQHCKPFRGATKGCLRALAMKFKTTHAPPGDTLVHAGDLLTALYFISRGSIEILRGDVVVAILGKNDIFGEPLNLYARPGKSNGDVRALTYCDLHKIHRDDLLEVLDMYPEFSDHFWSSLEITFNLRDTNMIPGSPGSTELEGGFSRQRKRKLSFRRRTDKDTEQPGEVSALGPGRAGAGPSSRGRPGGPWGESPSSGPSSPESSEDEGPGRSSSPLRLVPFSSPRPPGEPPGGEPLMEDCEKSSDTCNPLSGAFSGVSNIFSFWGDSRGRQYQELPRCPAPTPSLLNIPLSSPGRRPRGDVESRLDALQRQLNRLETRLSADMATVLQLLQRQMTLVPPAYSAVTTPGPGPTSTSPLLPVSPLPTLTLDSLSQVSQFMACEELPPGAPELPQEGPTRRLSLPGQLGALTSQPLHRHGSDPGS

SMILES	hERG current change (%, negative = inhibition) at 1uM [%]
C#CCn1c(=NC(=O)c2ccc(Cl)s2)sc2cccc(OC)c21	14.9
COc1cc(NC(=O)CCN2C(=O)NC3(CCCC3)C2=O)c(OC)cc1Cl	8.46
CCOC(=O)c1ccc(NC(=O)CCC(=O)NCc2ccco2)cc1	13.9
O=C(CSc1nnc(-c2ccc(Br)o2)n1Cc1ccccc1)c1ccccc1F	7.1
COc1cccc(C2CCCCN(C)C2=O)c1 (stereo not drawn)	-4.09
COc1ccc(C(=O)N/N=C(\C)CC(=O)Nc2ccc(Cl)cn2)cc1	-0.497
CCN1CCN(c2ccc(S(=O)(=O)N3CCCCC3)cc2NC(=O)c2ccc(C)o2)CC1	-62.4
Cc1ccc(-n2[nH]c(C)c(C=Nc3ccc(S(=O)(=O)Nc4nccs4)cc3)c2=O)cc1	3.63
O=C(/C=C/c1cccs1)Nc1nc(-c2ccccc2)cs1	-10
CCOC(=O)c1nnn(CC(=O)N2N=C(c3ccc(Cl)cc3)CC2c2ccccc2)c1C(=O)OCC (stereo not drawn)	-18.7
CN(C)c1ccc(CNc2nc3ccccc3s2)cc1	11.5
Cc1cccc2c(N=Nc3ccc(S(=O)(=O)Nc4cccc(Cl)c4)cc3[N+](=O)[O-])c(O)[nH]c12	27.8
CC1CC(C)CN(c2cc3c(cc2[N+](=O)[O-])C(=O)N(c2ccccc2)C3=O)C1 (stereo not drawn)	6.1
CCN(C(=O)COC(=O)c1ccccc1Nc1cccc(C)c1C)C1CCS(=O)(=O)C1 (stereo not drawn)	6.11
O=C(CCNS(=O)(=O)c1cccc2nsnc12)NC1CCCc2ccccc21 (stereo not drawn)	17.9
Cc1noc(C)c1COc1ccc(C(=O)NCCOc2ccccc2)cc1	-5.33
COC(=O)C1=C(C)NC2=C(C(=O)CC(C)(C)C2)C1c1ccsc1 (stereo not drawn)	6.37
Cn1nccc1C(=O)Nc1sc2c(c1C#N)CCCC2	12.2
O=C(CN(Cc1ccc(F)cc1)C(=O)c1ccco1)NCc1ccc(F)cc1	-13.6
Cn1c(=O)c2c(ncn2CC(=O)Nc2nc(-c3ccccc3Cl)cs2)n(C)c1=O	4.56
Cc1ccccc1NC(=O)c1cnn(-c2ccccc2)c1NC(=O)c1ccco1	4.25
CCOc1ccccc1NC(=O)c1ccccc1-c1nc(-c2ccccc2)no1	12.4

SMILES	hERG current change (%, negative = inhibition) at 1uM [%]
COc1ccccc1-n1nnnc1SCC(=O)NCC1(N2CCOCC2)CCCCC1	-4.87
Cc1cc(C)c(C)c(OCCCOc2cccc3cccnc23)c1	7.64
Cc1nc(SCC(=O)c2ccc(Cl)s2)c2oc3ccccc3c2n1	4.35
c1ccc(N2CCN(c3ccc4nncn4n3)CC2)nc1	-15.7
Cc1c(NC(=S)NC(=O)C(c2ccccc2)c2ccccc2)cccc1C(=O)O	3.49
CC1CCCCC12NC(=O)N(CC(=O)OCc1ccc(Br)cc1)C2=O (stereo not drawn)	12.7
O=C(COC(=O)CN1C(=O)C2CCCCC2C1=O)Nc1cc(S(=O)(=O)N2CCOCC2)ccc1Cl (stereo not drawn)	14.7
COc1ccc(S(=O)(=O)N(CC(=O)N/N=C/c2ccccc2C(=O)O)c2ccccc2OC)cc1	15
CCN=C1S/C(=C\c2ccc(OCC)c(OC)c2)C(=O)N1CC	13.1
COc1cc(NC(=O)c2ccccc2Cl)ccc1NC(=O)c1cccs1	6.22
CCOc1ccc(/C=N/NC(=O)c2cccc3ccccc23)c(OCC)c1	13.6
COC(=O)c1ccsc1NS(=O)(=O)c1ccccc1	13.9
COCc1cccc(NC(=O)Cc2cccc3ccccc23)c1	13.6
CC(C)OCCCNC(=O)C1CCN(S(=O)(=O)N2CCCC2)CC1	8.54
CC(C)CC(NC=C1C(=O)OC(C)(C)OC1=O)C(=O)O (stereo not drawn)	4.64
CN1C(C(=O)Nc2ccc(OC(F)(F)F)cc2)=CC(c2ccco2)=NS1(=O)=O	12.2
O=C(NC1CCCC1)c1cccc(Oc2ccccc2)c1	4.9
O=C(c1cc2c(ccc3ccccc32)o1)N1CCN(c2ncc(C(F)(F)F)cc2Cl)CC1	10.3
COc1ccc(NC(=O)C(NC(=O)CNC(C)=O)c2ccc(C)cc2)cc1 (stereo not drawn)	9.3
CCOc1ccccc1NC(=S)Nc1ccc(S(N)(=O)=O)cc1	9.57
Cc1cc(C)nc(N2CCN(C(=O)CCC(=O)Nc3nnc(CC(C)C)s3)CC2)n1	10.7
Cc1ccc(N(CC(=O)Nc2cc(C)ccc2C)S(C)(=O)=O)cc1	15.8

SMILES	hERG current change (%, negative = inhibition) at 1uM [%]
O=C1C=C(c2cccc(Cl)c2O)C[C@@H](c2ccc3c(c2)OCO3)C1	9.66
CCN(CC)S(=O)(=O)c1ccc(-c2nnc(SCC(=O)Nc3ccc(OC)cc3)o2)cc1	-12.8
Cc1ccc(NC(=O)CN2C(=O)NC(Cc3ccccc3)C2=O)cc1Cl (stereo not drawn)	5.93
NS(=O)(=O)c1ccc(CCNC(=O)C2CCCCN2S(=O)(=O)c2ccccc2)cc1 (stereo not drawn)	1.84
O=C(NCc1cccnc1)C(=O)NCC1OCCN1S(=O)(=O)c1ccc(Cl)cc1 (stereo not drawn)	-1.76
CC(=O)Nc1ccc(NC(=O)c2ccc(NS(=O)(=O)c3cccc4cccnc34)cc2)cc1	17.9
Cc1nc(-c2ccc(C(=O)Nc3ccc(F)cc3)cc2)cs1	10.8
Cc1ccc(F)cc1CNC(=O)C1CCC(=O)N(CCc2ccccc2)C1 (stereo not drawn)	-14.4
COc1ccc(-c2noc(CSc3ccc(C)cc3)n2)cc1	2.32
COCc1cc(=O)n2[nH]c(C)nc2n1	-1.01
O=C(Nc1ccc(OC(F)(F)F)cc1)Oc1ccccc1N1CCOCC1	8.29
COc1ccc(CCC(=O)OCC(=O)Nc2ccccc2OC(F)F)cc1OC	12
Cc1cc(NC(=O)C(C)SCC(=O)N(C)CC(=O)Nc2ccc(F)cc2)no1 (stereo not drawn)	10.4
C=CCc1cc(C)ccc1OCCn1ccnc1.O=C(O)C(=O)O	15.4
O=C(O)c1cc([N+](=O)[O-])ccc1NCc1ccccc1Cl	7.43
CC1CN(C2CCN(C(=O)COc3ccc(Cl)cc3)CC2)CC(C)O1.O=C(O)C(=O)O (stereo not drawn)	-0.775
CC(=O)c1cn(CC(=O)Nc2ccc(C)cc2C)c2ccccc12	6.43
CC(=O)Nc1ccc(S(=O)(=O)N2CCN(S(=O)(=O)c3ccc(F)c(F)c3F)CC2)cc1	8.97
O=C(Nc1ccc(F)cc1)C1CCC(N2C(=O)c3ccccc3C2=O)CC1 (stereo not drawn)	10.8
C=CCn1c(O)c(/C(C)=N/N2CCCCCC2)c(=O)[nH]c1=O	4.55
CN(O)C(=O)Nc1ccc([N+](=O)[O-])cc1	12.7
Cn1c(SCC(=O)NNC(=O)c2ccccc2)nnc1C(F)(F)F	11.6

SMILES	hERG current change (%, negative = inhibition) at 1uM [%]
Cn1c(NCC(O)c2ccccc2)nc2c1c(=O)n(Cc1ccc(Cl)c(Cl)c1)c(=O)n2C (stereo not drawn)	3.66
COc1ccc(C(O)P(=O)(OC(C)C)c2ccc(N(C)C)cc2)c(OC)c1 (stereo not drawn)	16.6
Cc1ccc(C)c(N(C)C(=O)COc2cc(=O)n(C)c3ccccc23)c1	-3.31
C=CCNc1nc(-c2cccc(OC)c2O)nc2ccccc12	9.57
Cc1ccc(C)c(Nc2nc(-c3ccncc3)nc3ccccc23)c1	1.82
C1=C(c2c[nH]c3ccccc23)CCNC1	14.2
COc1cc(C2/C(=C(/O)c3ccccc3)C(=O)C(=O)N2c2ccccn2)ccc1O (stereo not drawn)	18.5
CC(C)Cc1cc(C(=O)O)n[nH]1	5.43
O=C(OCCC1Oc2cccnc2NC1=O)c1ccc(F)cc1 (stereo not drawn)	-0.117
O=C(Cn1nc(C(F)(F)F)c2c1CCC2)NC1CCCCC1	5.98
COCCN(C(=O)CSc1nnc(C)n1Cc1ccccc1)c1c(N)n(Cc2ccccc2)c(=O)[nH]c1=O	13.1
Cc1ccc(/C=N/c2sc3c(c2C#N)CCCCC3)o1	7.67
COc1ccccc1NC(=O)N1CCC(c2nc3cc(C)c(C)cc3[nH]2)CC1	-9.29
CC1(C)OC(=CC=Nc2ccc(Cl)cc2)OC1(C)C	11.5
CC(=O)NC1=NN(c2ccccc2)C(=O)C1	20.3
CC(O)[C@H]1CNC(=O)C(=O)N1CCC12CC3CC(CC(C3)C1)C2 (stereo partly drawn)	7.41
Cc1ccc(C2=NCCn3c2c2ccc([N+](=O)[O-])cc2[n+]3[O-])cc1	12.2
Cc1ccc(CN(C)C(=O)C2CCC(=O)N(CC3CCCCC3)C2)o1 (stereo not drawn)	14.6
Cc1cc(NC(=O)COc2ccc(Cl)cc2Cl)n(CCC#N)n1	12.2
CC(NC(=O)c1cc(-c2ccccn2)nc2ccc(Cl)cc12)C1CCCO1 (stereo not drawn)	10.3
CCOCCOC(=O)C(C)Oc1ccc(Oc2ncc(Cl)cc2Cl)cc1 (stereo not drawn)	5.76
